# Assay results from PubChem BioAssay AID2675 (National Center for Advancing Translational Sciences (NCATS), 2010).
# About 100 (0.036%) of roughly 280,000 compounds were called active. Inconclusive results, whose numbers are uncertain, are shown with a selection of clear calls. Calls follow the shape of the dose curve; as a rule, active = well fitted inhibition curve with a large enough effect in the signal ratio, with a control signal flat (not every such curve was filed as active); inconclusive = small, poorly fitted or top-dose-only effect, or effect the other way, or a change in a side signal; inactive = no such curve, though single readings can be large or run the other way; the % refers to the signal ratio. A potency beside an inconclusive call is a rough fit, not a confirmed value. A note “side channel” means that the fit belongs to a control or component signal, not to the main read-out.
# Molecular target: Muscleblind-like protein 1 (Homo sapiens) (UniProt Q9NR56)
# UniProt Q9NR56, sequence (Q9NR56 whole entry, looked up): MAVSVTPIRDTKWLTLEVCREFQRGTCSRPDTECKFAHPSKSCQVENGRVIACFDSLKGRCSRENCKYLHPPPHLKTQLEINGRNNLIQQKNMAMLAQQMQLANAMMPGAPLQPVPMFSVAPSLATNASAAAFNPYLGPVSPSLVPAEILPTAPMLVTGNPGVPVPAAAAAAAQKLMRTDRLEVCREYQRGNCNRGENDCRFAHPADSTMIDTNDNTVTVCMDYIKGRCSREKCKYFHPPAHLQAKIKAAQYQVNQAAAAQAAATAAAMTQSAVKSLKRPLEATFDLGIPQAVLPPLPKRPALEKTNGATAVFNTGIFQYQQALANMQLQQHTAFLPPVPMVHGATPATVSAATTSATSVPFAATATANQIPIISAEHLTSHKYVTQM
# Experiment: qHTS Assay for Inhibitors of MBNL1-poly(CUG) RNA binding
# Conditions: TR-FRET MBNL1-His/biotin-(CUG)12 binding, 665/545 ratio; series mostly up to 57.5 µM
# Procedure, shortened: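 MBNL1-His + Biotin-(CUG)12, cpd titration 92 nM–58 uM; Tb anti-His Ab 0.055 ng/ul, SA-XL665 5 nM (final); 60 min RT; ratiometric 665/545 nm, Ex 340 nm; normalized to buffer and full-complex controls.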
# Potency is read from the fitted curve at half-maximal effect; tags tell the direction and shape of the fitted curve or compound fluorescence and quenching.
row,Structure (SMILES),Potency
1,CCc1c(C(=O)N/N=C/c2cccs2)nnn1-c1nonc1N,"inconclusive: 14.1 µM [quencher, side channel, partial curve]"
2,C=CC(COCc1ccccc1)N(Cc1ccc(OC)cc1)S(=O)(=O)c1ccccc1Br (stereo unspecified),"inconclusive: 7.08 µM [quencher, side channel, single point]"
3,O=C(c1ccc(-c2nc3ccccc3s2)o1)N1CCN(c2ccccc2O)CC1,"inconclusive: 35.5 µM [quencher, side channel, single point]"
4,Cn1cnnc1Sc1cc(N2CCN(S(=O)(=O)c3ccccc3)CC2)ccc1[N+](=O)[O-],"inconclusive: 22.4 µM [quencher, side channel, partial curve]"
5,CCC(C)NC(=O)c1ccccc1NC(=O)CN1C(=O)c2ccccc2S1(=O)=O (stereo unspecified),inactive
6,CCOC(=O)c1[nH]c2ccc(OC)cc2c1NC(=O)CCN1CCc2ccccc2C1,"inconclusive: 22.4 µM [fluorescent, side channel, single point]"
7,CC(OC(=O)c1cccnc1SCc1cc(=O)n2ccccc2n1)c1ccccn1 (stereo unspecified),"inconclusive: 17.8 µM [quencher, side channel, partial curve]"
8,N#Cc1c(Cl)nc(-c2ccncc2)nc1-c1ccccc1,inactive
9,COc1ccc(OC)c(N(CC(=O)N2CCN(c3cc(Cl)ccc3C)CC2)S(C)(=O)=O)c1,inactive
10,COc1ccc(Cl)cc1NC(=O)NN1CCN(C)CC1,"inconclusive: 6.31 µM [quencher, side channel, partial curve]"
11,CCS(=O)(=O)N1CCN(c2ccc([N+](=O)[O-])c(N3CCOCC3)c2)CC1,"inconclusive: 12.6 µM [quencher, side channel, partial curve]"
12,O=C(NC(=S)N1CCCC1)c1cccc([N+](=O)[O-])c1,"inconclusive: 14.1 µM [quencher, side channel, partial curve]"
13,CNC(=O)/C(C#N)=C/c1ccc(OCCOc2ccccc2)cc1,"inconclusive: 14.1 µM [quencher, side channel, partial curve]"
14,O=C(O)CC/C(=N\Nc1ccc(S(=O)(=O)N2CCOCC2)cc1[N+](=O)[O-])c1cccs1,"inconclusive: 11.2 µM [quencher, side channel, partial curve]"
15,OCCNC(=S)Nc1ccc2nsnc2c1,"inconclusive: 15.8 µM [quencher, side channel, partial curve]"
16,COc1ccc(NC(=O)CSc2n[nH]c(-c3ccncc3)n2)c([N+](=O)[O-])c1,"inconclusive: 15.8 µM [quencher, partial curve]"
